From paper PMC4336329 (PLoS ONE, 2015)
About 2,200 (0.71%) of roughly 310,000 compounds showed an effect of 50% or more. The effect is printed as a negative number. The list shows a part of the results.

target: human ether-à-go-go-related gene (hERG) potassium channel (human, UniProt Q12809); assay: primary screen, population patch clamp on CHO cells stably expressing hERG
Sequence (Q12809 whole entry, looked up): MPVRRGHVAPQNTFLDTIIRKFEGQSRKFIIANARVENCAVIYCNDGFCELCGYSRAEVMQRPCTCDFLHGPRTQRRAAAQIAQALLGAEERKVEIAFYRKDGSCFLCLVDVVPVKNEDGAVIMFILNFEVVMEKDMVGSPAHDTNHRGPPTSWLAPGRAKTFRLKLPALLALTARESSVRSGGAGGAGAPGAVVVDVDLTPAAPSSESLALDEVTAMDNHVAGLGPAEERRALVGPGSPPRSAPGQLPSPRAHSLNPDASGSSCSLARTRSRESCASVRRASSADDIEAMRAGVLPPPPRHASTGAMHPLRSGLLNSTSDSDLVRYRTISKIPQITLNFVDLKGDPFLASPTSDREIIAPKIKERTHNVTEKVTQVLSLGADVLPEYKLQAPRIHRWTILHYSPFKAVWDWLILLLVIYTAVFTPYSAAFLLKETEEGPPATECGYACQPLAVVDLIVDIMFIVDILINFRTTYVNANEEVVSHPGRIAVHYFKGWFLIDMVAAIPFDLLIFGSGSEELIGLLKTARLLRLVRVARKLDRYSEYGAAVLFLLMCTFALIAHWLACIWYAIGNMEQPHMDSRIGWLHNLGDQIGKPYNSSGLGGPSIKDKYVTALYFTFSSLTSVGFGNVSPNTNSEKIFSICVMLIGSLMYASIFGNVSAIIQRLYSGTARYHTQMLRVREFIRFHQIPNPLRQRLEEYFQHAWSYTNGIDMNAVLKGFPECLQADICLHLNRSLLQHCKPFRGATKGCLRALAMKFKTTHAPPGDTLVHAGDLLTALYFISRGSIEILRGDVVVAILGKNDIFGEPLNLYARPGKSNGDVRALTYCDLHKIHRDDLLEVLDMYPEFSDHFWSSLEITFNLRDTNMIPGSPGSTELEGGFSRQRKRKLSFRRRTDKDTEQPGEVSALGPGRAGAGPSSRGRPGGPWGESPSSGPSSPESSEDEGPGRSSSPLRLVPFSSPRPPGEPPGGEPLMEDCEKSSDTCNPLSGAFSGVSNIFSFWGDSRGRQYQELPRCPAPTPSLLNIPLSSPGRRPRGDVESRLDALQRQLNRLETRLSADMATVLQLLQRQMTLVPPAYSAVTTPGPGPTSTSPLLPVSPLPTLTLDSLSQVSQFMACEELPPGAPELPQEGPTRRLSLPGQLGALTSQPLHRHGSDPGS

Compound	hERG current change (%, negative = inhibition) at 1uM
O=C(N/N=C/c1ccncc1)c1cc(Br)ccc1OCc1ccccc1	-1.49%
CN1CCN(S(=O)(=O)c2cccc(C(=O)NCCOc3ccccc3)c2)CC1	-0.534%
CCCCNC(=O)C1CCC(CNS(=O)(=O)c2ccc(C)cc2)CC1 (stereo not shown)	13%
O=C1CCCN1CCC1CCN(C(=S)Nc2ccc(F)cc2)CC1	0.262%
Cc1cc(NC(=O)CSc2nnnn2C2CCCC2)no1	12.5%
NC(=O)COc1ccc2cc(-c3ccc(F)cc3)c(=O)oc2c1	14%
Cc1ccc2nc(-c3cccc(S(=O)(=O)N4CCCC4)c3)cn2c1	9.96%
COc1ccc(F)cc1S(=O)(=O)n1nc(C)cc1C	3.39%
C[n+]1ccc(C(=O)NCc2ccccc2)cc1.[I-]	24.3%
COc1ccc(OC)c(-n2c(O)c(C=Nc3c(C)n(C)n(-c4ccccc4)c3=O)c(=O)[nH]c2=O)c1	19.7%
O=C(Oc1c(-c2ccccc2Cl)oc2ccccc2c1=O)c1ccc(Cl)cc1	0.761%
CC(NC(=O)Cc1c(F)cccc1Cl)C1CCCO1 (stereo not shown)	4.96%
C[N+]1(C)CCC(OC(=O)C(O)(c2ccccc2)C2CCCC2)C1.[Br-] (stereo not shown)	14.6%
Cc1cc(CN(C)C(=O)c2ccc(OC3CCN(CCc4ccccc4)CC3)cc2)on1	-77.5%
O=C(O)C1CCCNC1 (stereo not shown)	-1.74%
C[C@@H]1CC[C@]2(O[C@H](CCO)C[C@@H](O)[C@@H]2O)O1	8.9%
CCCC(=O)c1ccc(-c2ccccc2)cc1	-0.0723%
CN1CCC(N(CCc2ccccc2)C(=O)CCC(=O)O)CC1	12.9%
CC(Oc1cccc(Cl)c1)c1ccnc2nc(/N=C/N(C)C)nn12 (stereo not shown)	7.85%
CCN(c1ccccc1)S(=O)(=O)c1ccc(Cl)c(C(=O)OCC(=O)NC(=O)C(C)C)c1	22.4%
O=C(CCCCn1c(=O)[nH]c2ccccc2c1=O)NCCC1=CCCCC1	7.59%
CN(CC(=O)NCc1cccs1)CC(=O)Nc1ccc(F)c(F)c1F	-3.97%
CC(=O)c1ccc(NC(=O)CCCN2C(=O)/C(=C/C(C)=C/c3ccccc3)SC2=S)cc1	15.3%

Compound	hERG current change (%, negative = inhibition) at 1uM
O=C(N/N=C/c1ccc(OC(=O)c2ccco2)cc1)c1ccccn1	9.86%
NC(=O)CSc1nc2scc(-c3ccc(Cl)cc3)c2c(=O)n1Cc1ccccc1	12.3%
Cc1ccc(-c2cn(-c3ccc(OC(F)F)cc3)c3[n+]2CCCCC3)cc1.[Br-]	-13.3%
COc1ccc(CCNS(=O)(=O)c2ccc3c(c2)NC(=O)CO3)cc1OC	13%
CCCCn1c(N)c(N(CCOC)C(=O)c2ccc(C)c(S(=O)(=O)N3CCOCC3)c2)c(=O)[nH]c1=O	8.24%
O=C(Nc1nnc(CSCc2ccc(F)cc2)s1)c1cccc([N+](=O)[O-])c1	18.4%
O=S(=O)(c1cc(Cl)ccc1Cl)N1CCN(Cc2ccco2)CC1	1.89%
Cc1cc(C)c(NC(=O)COC(=O)Cc2cccs2)c(C)c1	10.9%
O=C(Nc1cccc(Br)c1)c1ccccc1-c1ccccc1	-5.69%
COC(=O)c1c(-c2ccccc2)csc1NC(=O)c1c(-c2ccccc2)noc1C	-10%
CCOc1cc2[nH]c(=S)n(CCCN3CCCC3=O)c(=O)c2cc1OCC	2.89%
CC(=O)c1ccc(NC(=O)C2Cc3ccccc3CN2C(=O)c2ccccc2)cc1 (stereo not shown)	13%
CCC(OC(=O)c1ccco1)C(=O)NC1CCCC1 (stereo not shown)	8.14%
CCC(C(=O)OCC(=O)Nc1cccc(S(=O)(=O)NC2=NCCCCC2)c1)c1ccccc1 (stereo not shown)	0.27%
CCC1(OC(=O)c2ccccc2)CC(C)N(C)CC1C.Cl (stereo not shown)	9.95%
O=C(CN1CCCC1)Nc1cc(F)ccc1F	-3.94%
O=C(COC(=O)c1ccc([N+](=O)[O-])cc1Cl)NC(=O)c1ccccc1	14.5%
Cc1coc2c1c(C)cc1oc(=O)c(CC(=O)NCCC(=O)O)c(C)c12	17.2%
COCc1cc(C)nc(N)c1C#N	9.47%
Oc1ccc(/C=N/N2CCN(C3c4ccccc4-c4ccccc43)CC2)c(O)c1	1.21%
O=C(NNc1ncnc2ccccc12)c1cccc(Cl)c1	12.8%
CC(C)CCNC(=O)CCc1nnc2n(CCCOC(C)C)c(=O)c3ccccc3n12	0.0861%
COc1ccccc1OCCCC(=O)NC(C)c1ccccc1 (stereo not shown)	8%

Compound	hERG current change (%, negative = inhibition) at 1uM
C[C@]12CC[C@@H](O)C[C@H]1CC[C@@H]1[C@@H]2CC[C@]2(C)C(=O)CC[C@@H]12	11.4%
CC(=O)C1C(c2ccc(Cl)cc2)c2c(n[nH]c2C)CC1(C)O (stereo not shown)	14.4%
CC(C)n1cc(C(=O)N(CC(=O)NC2CCCC2)Cc2ccccc2)cn1	3.73%
CN(CC(=O)NCCCc1ccccc1)S(=O)(=O)c1ccc(Br)cc1	10.7%
CCOc1ccccc1N1CCN(C(=O)c2ccccc2OCc2c(C)noc2C)CC1	7.64%
COc1cc(NC(=S)NCc2ccc(S(N)(=O)=O)cc2)c(OC)cc1Cl	0.0964%
Cc1cc(C)nc(NC(=O)c2ccccc2O)n1	16.4%
Cn1nnnc1SCSc1nnnn1C	8.16%
Cn1c(SCC(=O)c2ccc(F)cc2)nnc1-c1ccccn1	12.2%
CC1CN(S(=O)(=O)c2ccccc2)CC(C)O1 (stereo not shown)	-1.04%
COc1cc2c(cc1OC)C(Nc1ccccc1)=NC(C)(C)C2	-4.73%
CCCc1cc(=O)[nH]c(SCC(=O)Nc2ccccc2C#N)n1	17.3%
COc1ccc(C(=O)NC23CC4CC(CC(C4)C2)C3)cc1	14.3%
COC(=O)Nc1ccc(S(=O)(=O)N2CCC(C)CC2)cc1	-10.2%
Cc1ccccc1S(=O)Cc1ccc(C(=O)NC2CCN(Cc3ccccc3)CC2)o1 (stereo not shown)	4.68%
CCOC(=O)c1sc(NC(=S)NC(=O)c2cccc(OC)c2)nc1C	19.1%
CCCCn1c(O)c(C(CC)=NCCCn2ccnc2)c(=O)[nH]c1=O	8.56%
CCOC(=O)c1sc(NC(=O)Nc2ccccc2F)nc1C	3.34%
Cc1ccc(S(=O)(=O)c2nc(S(C)(=O)=O)sc2NCC2CCCO2)cc1 (stereo not shown)	-16.2%
COc1ccc(C(=O)Nc2ccc(OC)c([N+](=O)[O-])c2)cc1Br	10.8%
CN(C)S(=O)(=O)Nc1ccccc1C(N)=O	12.2%
O=C(NCCOC(=O)C1COc2ccccc2O1)C1COc2ccccc2O1 (stereo not shown)	-4.55%
CC(C)N(CCC(=O)c1ccc2ccccc2c1)Cc1ccccc1.Cl	19.5%

Compound	hERG current change (%, negative = inhibition) at 1uM
CC(C)N(Cc1cn(C)nc1-c1cccc(Cl)c1)CC1CCC(=O)N1 (stereo not shown)	10.9%
O=C(CSc1nnc(NC(=O)c2c(F)cccc2F)s1)NCc1ccc(F)cc1	8.31%
O=C(CCN1C(=O)/C(=C/c2ccc(F)cc2)SC1=S)N[C@@H](CO)Cc1ccccc1	9.57%
CC1CC(C)CN(C(=O)Cn2nnc(-c3ccc(Br)cc3)n2)C1 (stereo not shown)	8.54%
Cn1cc(S(=O)(=O)N2CCOCC2)cc1C(=O)NCc1ccccc1Cl	-4.53%
COc1ccc(CNCCCC(=O)Nc2c(Cl)ccc(C)c2Cl)cc1OC	7.55%
Nc1nc(-c2ccc(Cl)cc2)nc(-c2ccc(Cl)cc2)n1	6.44%
CN(CCOc1ccccc1)Cc1nc2cc(Cl)ccc2c(=O)[nH]1	0.553%
NNC(=O)CCc1c[nH]c2ccccc12	22.1%
CSc1nc(N2CCOCC2)c2c3c(sc2n1)CCCC3	13.6%
Cc1cc(=O)[nH]c(SCn2nnc3ccccc3c2=O)n1	3.07%
COC(=O)c1ccccc1C(=O)N(Cc1cccnc1)CC1CCCN(C2CCCCC2)C1 (stereo not shown)	-7.49%
CCOc1ccccc1C1CC(=O)Nc2cc(OC)c(OC)c(OC)c21 (stereo not shown)	15%
CNC(=O)COC(=O)CCC(=O)c1ccc(Cl)cc1	14.8%
Cn1c2ccccc2n2c(=O)c(Cl)c(-c3ccccc3)c(C#N)c12	10%
N#CCCN1CCn2c1nc1ccccc12	16.7%
COc1cc(C(=O)NCCc2cn3ccccc3n2)cc(OC)c1OC	8.52%
COc1ccc(-n2c(-c3ccc(Br)cc3)c[n+]3c2CCc2ccccc2-3)cc1.[Br-]	-90.6%
CC(OC(=O)c1cccc(S(=O)(=O)N2CCOCC2)c1)C(=O)NC1CCCCC1C (stereo not shown)	7.75%
CCC(C)N1CC(C(=O)NC2CCCCC2)CC1=O (stereo not shown)	7.1%
OCCOCCn1c(-c2ccccc2)nc(=S)c2c1CCCC2	9.77%
CC(C)(C)OC(=O)N/N=C/c1ccc(C(=O)O)cc1	13.8%
